{"source": "PubChem BioAssay (NCI)", "note": "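In this assay, cells in 96-well plates receive the compound at five concentrations for 48 hours. Endpoints are linearly interpolated between the surrounding concentrations. GI50: concentration for 50% inhibition of growth. At the TGI there is no net growth.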"}
{"test_system": "NCI-H322M lung", "test": "NCI tumour cell line growth inhibition, 48 h", "units": {"GI50": "µM", "TGI": "µM"}}
{"compound": "O=C(c1ccc(Cl)cc1)C1[C@H](c2ccccc2Cl)[C@@H](c2ccccc2)NC12C(=O)Nc1ccccc12", "note": "(stereo partly specified)", "GI50": 25.5, "TGI": "> 100"}
{"compound": "Cc1ccc(/C=C/C(=O)c2ccc(S(=O)(=O)NCCNc3nc(Nc4ccc(F)cc4)nc(N(C)C)n3)cc2)cc1", "GI50": 11.8, "TGI": 27.1}
{"compound": "COc1ccc(NC(=O)Nc2nc3ccc([N+](=O)[O-])cc3s2)cc1", "GI50": 2.81, "TGI": 8.21}
